Test results from PubChem BioAssay (NCATS).
Where “and” joins values, the source holds several entries; their conditions need not be identical. Equal values may be shown once. Inconclusive means that the source gave no clear call. Such entries were picked first, then a sample of the others. Where the call is inconclusive, the potency comes from a doubtful curve fit. Calls of active or inactive are those of the source. Calls come from the whole dose curve; as a rule, active = well fitted curve in the direction sought with a large enough effect; inconclusive = small, poorly fitted or top-dose-only effect, or another doubt; inactive = no such curve, though single readings can be large; an effect the other way counts as inactive or inconclusive.

How the values were obtained:
[1] = Viability qHTS for spleen associated tyrosine kinase inhibitor (SYKi) naive MV4-11 cells (AID 1963823); note: nearly all actives have a fitted effect of over 40% in size
How it was run: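 Compounds were dispensed acoustically onto plates, MV4-11 cells (SYKi-naive) added at 500 per well, and plates incubated 72 hr at 37 C. CellTiter-Glo was added and luminescence measured after 10 min.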

[2] = Viability qHTS for spleen associated tyrosine kinase inhibitor (SYKi) drug resistant MV4-11 cells (AID 1963824); note: nearly all actives have a fitted effect of over 35% in size
How it was run: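 SYK inhibitor-resistant MV4-11 AML cells, 500 per well, added to predispensed compounds and incubated 72 hr at 37 C, 5% CO2. Viability measured by CellTiter-Glo luminescence after 10 min at room temperature.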

[3] = Cellular viability qHTS for adrenocortical cancer (ACC) cell line SW-13 (AID 1963989); conditions: SW-13 ACC cells viability, CellTiter-Glo, 48 h; activity (max response): stronger effect = lower value; note: nearly all actives have a fitted effect of over 65% in size;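 for activity (max response): cells grown in serum-free medium with ITS supplement; % is set by controls: 0 for no effect and ±100 for the full control effect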
How it was run: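 Luminescent ATP read-out (CellTiter-Glo, 20 min at room temperature) measured metabolically competent SW-13 cells after 48 h compound treatment. Final concentrations spanned up to 46 uM; bortezomib served as positive control.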

[4] = Cellular viability qHTS for adrenocortical cancer (ACC) cell line NCI-H295R (AID 1963990); conditions: CellTiter-Glo ATP luminescence, 48 h; activity change, negative = viability loss: at 46.1 µM (top of the series); note: nearly all actives have a fitted effect of over 60% in size;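 for activity change, negative = viability loss: 0% = DMSO only wells and -100% = full killing with cytotoxic reference compound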
How it was run: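 IC50 and maximal efficacy derive from four-parameter logistic modelling of titration curves, with reads scaled between DMSO-only wells (0%) and doxorubicin hydrochloride (100% inhibition). Compounds spanned up to 46 uM over 48 h.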
Potency is the fitted concentration of half-maximal effect; tags give direction and shape of the fitted curve.

Row | Compound | Potency [1] | Potency [2] | Potency [3] | Potency [4] | activity (max response) [3]
1 | CC(C)(C)CC(C)(C)c1ccc(O)cc1 | inconclusive: 19.3 nM [cytotoxic, full curve] and inconclusive: 33.5 µM [cytotoxic, single point] | inconclusive: 21.7 nM [cytotoxic, full curve] and inconclusive: 33.5 µM [cytotoxic, single point] | inconclusive: 35.5 µM [cytotoxic, single point] and inconclusive: 20.6 µM [cytotoxic, single point] | active: 8.91 µM and active: 13 µM | –
2 | CC1N=C(N)OC1c1ccccc1 (stereo unspecified) | inactive | inactive | inconclusive: 56.2 µM [cytotoxic, single point] | inconclusive: 56.2 µM [cytotoxic, single point] | –
3 | C=CCC1=C(C)C(OC(=O)C2C(C=C(C)C)C2(C)C)CC1=O (stereo unspecified) | active: 5.45 µM | active: 9.69 µM | inconclusive: 39.8 µM [cytotoxic, single point] | inconclusive: 56.2 µM [cytotoxic, partial curve, poor fit] | –
4 | CCC(=O)O[C@H]1CC[C@H]2[C@@H]3CCC4=CC(=O)CC[C@]4(C)[C@H]3CC[C@]12C | inconclusive: 33.5 µM [cytotoxic, single point] | inconclusive: 33.5 µM [cytotoxic, single point] | – | inconclusive: 18.4 µM [cytotoxic, partial curve, poor fit] | inactive: -15%
5 | O=c1[nH]c2ccccc2n1C1CCN(CCCC(c2ccc(F)cc2)c2ccc(F)cc2)CC1 | inconclusive: 11.9 µM [cytotoxic, partial curve, poor fit] and inconclusive: 2.06 µM [cytotoxic, full curve] | inconclusive: 10.6 µM [cytotoxic, partial curve, poor fit] and inconclusive: 2.31 µM [cytotoxic, full curve] | inconclusive: 20.6 µM [cytotoxic, single point] | active: 23.1 µM | –
6 | CCOP(=S)(OCC)Oc1ccc2c(C)c(Cl)c(=O)oc2c1 | inactive | inconclusive: 33.5 µM [cytotoxic, single point] | – | inactive | inactive: 7.58%
7 | Oc1cccc2cccnc12 | inconclusive: 30.6 µM [cytotoxic, partial curve] and inactive | inconclusive: 6.86 µM [cytotoxic, partial curve] and inactive | – | inconclusive: 39.8 µM [cytotoxic, single point] | –
8 | C[C@]12C/C(=C/O)C(=O)C[C@@H]1CC[C@@H]1[C@@H]2CC[C@@]2(C)[C@H]1CC[C@]2(C)O | active: 18.8 µM | inconclusive: 26.6 µM [cytotoxic, single point] | inconclusive: 20.6 µM [cytotoxic, single point] | inconclusive: 20.6 µM [cytotoxic, single point] | –
9 | CCOC(=O)C1(c2ccccc2)CCN(CCC(C#N)(c2ccccc2)c2ccccc2)CC1 | inconclusive: 9.44 µM [cytotoxic, partial curve] | inconclusive: 21.1 µM [cytotoxic, partial curve] | inconclusive: 16.4 µM [cytotoxic, single point] | inconclusive: 23.1 µM [cytotoxic, single point] | –
10 | Clc1ccc(C(c2ccc(Cl)cc2)C(Cl)(Cl)Cl)cc1 | inconclusive: 21.1 µM [cytotoxic, partial curve] | inconclusive: 18.8 µM [cytotoxic, partial curve] | – | inconclusive: 4.11 µM [cytotoxic, full curve, poor fit] | –
11 | NC1(c2ccccc2)CCCCC1 | inconclusive: 67.9 µM [cytotoxic, single point] | inconclusive: 48.1 µM [cytotoxic, single point] | inconclusive: 44.7 µM [cytotoxic, partial curve] | inconclusive: 63.1 µM [cytotoxic, single point] | –
12 | CCN1CCCC1CNC(=O)C(O)(c1ccccc1)c1ccccc1 (stereo unspecified) | inactive | inactive | – | inconclusive: 0.651 µM [cytotoxic, full curve] | inactive: -3.88%
